Test results: the supplement of paper PMC9446081
Out of some 39,000 compounds screened, about 220 (0.56%) showed activity. The list shows a part of the results.

What follows are compounds tested on Escherichia coli K-12 BW25113 (assay: relative growth (OD600 normalised to plate interquartile mean) (fraction); higher = less growth inhibition, active = 0.2 or less). Conditions: 50 µM; LB; incubation time: overnight (16-24 h).
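Also: static incubation at 37 °C against the wild-type strain, values averaged over two biological replicates.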

Row | Structure (SMILES) | relative growth
1 | C[C@H]1CCCCO[C@H](CN(C)Cc2ccc(Cl)c(Cl)c2)[C@@H](C)CN([C@@H](C)CO)C(=O)c2cc(N(C)C)ccc2O1 | inactive: 0.969
2 | N[C@@H](CSCCCO)C(=O)O | inactive: 1.01
3 | COc1ccc(S(=O)(=O)Nc2ccc3c(c2)C(=O)N([C@@H](C)CO)C[C@H](C)[C@@H](CN(C)C(=O)Nc2ccc(C(F)(F)F)cc2)OCCCC[C@@H](C)O3)cc1 | inactive: 1.01
4 | C[C@@H]1CN([C@@H](C)CO)C(=O)c2cc(NC(=O)c3ccncc3)ccc2O[C@@H](C)CCCCO[C@H]1CN(C)C(=O)Nc1ccc2c(c1)OCO2 | inactive: 0.994
5 | Cc1noc(C)c1S(=O)(=O)Nc1ccc2c(c1)CC(=O)N([C@@H](C)CO)C[C@@H](C)[C@@H](CN(C)S(=O)(=O)c1cn(C)cn1)O2 | inactive: 0.996
6 | C[C@H](CO)N1C[C@H](C)[C@@H](CN(C)C(=O)Nc2ccc3c(c2)OCO3)Oc2ccc(NC(=O)c3ccncc3)cc2C1=O | inactive: 0.977
7 | C[C@@H]1CN([C@H](C)CO)C(=O)c2cc(Br)cnc2O[C@@H]1CN(C)C(=O)Nc1ccc(F)cc1 | inactive: 1.04
8 | C[C@@H]1CCCCO[C@H](CN(C)Cc2ccncc2)[C@H](C)CN([C@H](C)CO)C(=O)c2cc(NC(=O)Cc3ccccc3)ccc2O1 | inactive: 0.985
9 | CO[C@@H](CN(C)C(=O)C1CCOCC1)[C@@H](C)CN(C(=O)Nc1ccc(C(F)(F)F)cc1)[C@H](C)CO | inactive: 0.854
10 | C[C@@H]1CN([C@@H](C)CO)C(=O)c2cc(NC(=O)Nc3ccccc3)ccc2O[C@@H](C)CCCCO[C@@H]1CN(C)C(=O)NC1CCCCC1 | inactive: 1.02
11 | COCC#Cc1cnc2c(c1)C(=O)N([C@H](C)CO)C[C@@H](C)[C@@H](CN(C)C(=O)c1ccc3c(c1)OCO3)O2 | inactive: 1.03
12 | CN(C)CCCNC(=O)C[C@H]1CC[C@@H]2[C@H](COc3ccc(NC(=O)c4cccc(F)c4)cc3C(=O)N2C)O1 | inactive: 1.03
13 | CCC[C@@H](N[C@H]1CCS(=O)(=O)C1)C(=O)O | inactive: 1
14 | CC(C)N(C)Cc1nnc2n1CCN(CCO)C2 | inactive: 0.886
15 | CC(C)(C)[S@](=O)N1Cc2cc(C(=O)NC3CCC3)nc(-c3cccc(-c4ccccc4F)c3)c2[C@@H]1CCO | inactive: 1.06
16 | c1n[nH]cc1-c1cn[nH]c1 | inactive: 0.997
17 | C[C@H](CO)N1C[C@H](C)[C@H](CN(C)C(=O)Nc2cccc3ccccc23)OCCCC[C@H](C)Oc2ccc(NS(=O)(=O)c3cccs3)cc2C1=O | inactive: 0.987
18 | CCOC(=O)N1CCN(C[C@@H](O)Cn2c(=O)c3c(ncn3C)n(C)c2=O)CC1 | inactive: 1.01
19 | C[C@H](CO)N1C[C@H](C)[C@H](CN(C)Cc2ccc(C(=O)Nc3ccccc3N)cc2)Oc2ccc(NC(=O)Nc3ccccc3)cc2C1=O | inactive: 1.01
20 | Cc1ccc(S(=O)(=O)N(C)C[C@@H]2Oc3c(NS(C)(=O)=O)cccc3C(=O)N([C@@H](C)CO)C[C@@H]2C)cc1 | inactive: 1
21 | COc1ccc2c3c(n(c2c1)C)[C@@H](CO)N(C[C@]13CCN(CC1)C(=O)CN1CCOCC1)C(=O)Nc1ccc(cc1)F | inactive: 1.01

Row | Structure (SMILES) | relative growth
22 | CC(C)NC(=O)N(C)C[C@H]1OCCCC[C@@H](C)Oc2ccc(NC(=O)Nc3ccc(C(F)(F)F)cc3)cc2C(=O)N([C@@H](C)CO)C[C@H]1C | inactive: 0.995
23 | COc1ccc(S(=O)(=O)N(C)C[C@H]2Oc3c(NC(=O)c4ccncc4)cccc3C(=O)N([C@H](C)CO)C[C@@H]2C)cc1 | inactive: 1.01
24 | N[C@@H](CSSC[C@H](N)C(=O)O)C(=O)O | inactive: 1.02
25 | COc1ccc(NC(=O)Nc2cccc3c2O[C@@H](CN(C)CC2CCCCC2)[C@@H](C)CN([C@H](C)CO)C3=O)cc1 | inactive: 0.832
26 | Cl.NCc1ccc(S(N)(=O)=O)cc1 | inactive: 0.983
27 | CCCNC(=O)Nc1ccc2c(c1)C(=O)N(C)C[C@@H](OC)[C@H](C)CN(C(=O)C1CCOCC1)[C@H](C)CO2 | inactive: 0.952
28 | C[C@@H]1CN([C@@H](C)CO)C(=O)c2cc(NC(=O)c3ccccc3)ccc2O[C@@H](C)CCCCO[C@H]1CN(C)Cc1ccncc1 | inactive: 0.995
29 | CO[C@H]1CN(C)C(=O)c2cc(NS(=O)(=O)c3cn(C)cn3)ccc2OC[C@H](C)N(CCC(F)(F)F)C[C@@H]1C | inactive: 1
30 | COc1ccc(NC(=O)Nc2ccc3c(c2)C(=O)N([C@H](C)CO)C[C@H](C)[C@@H](CN(C)C(=O)C2CCCCC2)OCCCC[C@H](C)O3)cc1 | inactive: 0.988
31 | Cc1noc(C)c1S(=O)(=O)Nc1cccc2c1O[C@H](CN(C)S(=O)(=O)c1cccs1)[C@H](C)CN([C@H](C)CO)C2=O | inactive: 0.983
32 | O=C(Nc1ccc(C(F)(F)F)cc1)Nc1cccc(Cl)c1 | inactive: 0.747
33 | CCO[C@@H]1OC(C(=O)N2CCN(Cc3ccc4c(c3)OCO4)CC2)=C[C@H](c2csc3ccccc23)[C@H]1CCCOC(=O)NCCCCCC(=O)NO | inactive: 1.02
34 | COc1cccc(C#Cc2cnc3c(c2)C(=O)N([C@@H](C)CO)C[C@H](C)[C@H](CN(C)C(=O)C2CCC2)O3)c1 | inactive: 1.03
35 | NC1(C(=O)O)CC1 | inactive: 0.988
36 | CN1CCN(C(=O)C[C@@H]2C=C[C@@H](NC(=O)Nc3ccccc3F)[C@@H](CO)O2)CC1 | inactive: 0.996
37 | CC1COc2c(N3CCN(C)CC3)c(F)cc3c(=O)c(C(=O)O)cn1c23 (stereo unspecified) | active: 0.0447
38 | C[C@H](CO)N1C[C@H](C)[C@@H](CN(C)Cc2ccncc2)Oc2ccc(NC(=O)CCN3CCOCC3)cc2CC1=O | inactive: 0.982
39 | C[C@@H]1CN([C@H](C)CO)S(=O)(=O)c2ccc(C#CC3CC3)cc2O[C@H]1CN(C)Cc1ccc(F)cc1 | inactive: 1.03
40 | COC(=O)CCc1ccc(OC)cc1O | inactive: 0.959
41 | O=C(C[C@@H]1C[C@H]2c3cc(NS(=O)(=O)c4ccc(F)cc4)ccc3O[C@H]2[C@H](CO)O1)NCc1ccccc1 | inactive: 1
